# Data taken from the antibiotic and cytotoxicity screens of Wong et al. (2023).
# The list shows a part of the results.
# Tested on: HSkMC (human skeletal muscle cells)
# Assay: cytotoxicity call (relative viability < 0.9)
# Conditions: 10 µM
row,SMILES,cytotoxicity call
1,C[C@@H]1CN([C@@H](C)CO)C(=O)CCCn2cc(nn2)CO[C@@H]1CN(C)S(=O)(=O)c1ccc2c(c1)OCCCO2,inactive
2,C[C@@H]1CN([C@@H](C)CO)C(=O)c2cccc(NC(=O)Nc3ccc4c(c3)OCO4)c2O[C@@H]1CN(C)C(=O)Nc1cccc2ccccc12,inactive
3,Cl.O=C1CC2(CCCC2)CC(=O)N1CCCCN1CCN(c2ncccn2)CC1,inactive
4,COCC(=O)Nc1ccc2c(c1)C(=O)N(C)[C@@H]1CC[C@H](CC(=O)NC3Cc4ccccc4C3)O[C@@H]1CO2,inactive
5,C[C@@H]1CN([C@@H](C)CO)C(=O)c2cc(NC(=O)C3CCCCC3)ccc2O[C@@H](C)CCCCO[C@H]1CN(C)C(=O)CCC(F)(F)F,inactive
6,Cc1cc(C(=O)Nc2cccc3c2O[C@H](CN(C)Cc2ccc(C(=O)O)cc2)[C@@H](C)CN([C@@H](C)CO)C3=O)n(C)n1,inactive
7,C[C@@H]1CN([C@@H](C)CO)C(=O)CCCn2nncc2CO[C@@H]1CN(C)S(=O)(=O)c1ccc(C#N)cc1,inactive
8,Cc1ccc(S(=O)(=O)N(C)C[C@@H]2OCCCC[C@@H](C)Oc3ccc(NC(=O)NC4CCCCC4)cc3C(=O)N([C@@H](C)CO)C[C@@H]2C)cc1,inactive
9,Cc1ccc(S(=O)(=O)N(C)C[C@H]2Oc3ccc(NC(=O)c4ccncc4)cc3CC(=O)N([C@@H](C)CO)C[C@H]2C)cc1,inactive
10,Nc1cc(C(Cl)=C(Cl)Cl)c(S(N)(=O)=O)cc1S(N)(=O)=O,inactive

# Tested on: HepG2
# Assay: cytotoxicity call (relative viability < 0.9)
# Conditions: 10 µM
row,SMILES,cytotoxicity call
1,Cc1ccc(C2(CN3CCN4C(=O)CN(C)C(=O)[C@H]4C3)CCNCC2)nc1,inactive
2,C[C@@H]1CCCCO[C@@H](CN(C)Cc2ccccc2)[C@H](C)CN([C@@H](C)CO)C(=O)c2cc(NC(=O)c3ccncc3)ccc2O1,inactive
3,Cc1ccc(S(=O)(=O)N(C)C[C@H]2Oc3ccc(NS(=O)(=O)c4ccc(F)cc4)cc3CC(=O)N([C@@H](C)CO)C[C@@H]2C)cc1,active
4,O=C(C[C@@H]1CC[C@H]2[C@@H](COC[C@H](O)CN2C(=O)c2cnccn2)O1)N1CCN(c2ccccc2)CC1,inactive
5,O=C(C[C@@H]1C[C@@H]2c3cc(NC(=O)Nc4ccccc4F)ccc3O[C@@H]2[C@@H](CO)O1)NCc1ccc(Oc2ccccc2)cc1,active
6,CCCNC(=O)N1C[C@]2(CN(C2)S(=O)(=O)c2cccc(c2)OC)c2c(n(c3cc(ccc23)OC)C)[C@@H]1CO,inactive
7,Cc1cc(C(=O)Nc2cccc3c2O[C@H](CN(C)C(=O)Nc2c(C)noc2C)[C@@H](C)CN([C@@H](C)CO)C3=O)n(C)n1,inactive
8,C/C(=C\C(=O)OCCCCCCCCC(=O)O)C[C@@H]1OC[C@H](C[C@@H]2O[C@H]2[C@@H](C)[C@H](C)O)[C@@H](O)[C@H]1O,inactive
9,COc1ccc(S(=O)(=O)N(C)C[C@H]2Oc3ccc(NC(=O)C4CC4)cc3C(=O)N([C@@H](C)CO)C[C@H]2C)cc1,inactive
10,CO[C@@H]1CN(C)C(=O)c2ccc(NC(=O)Nc3cccc(Cl)c3)cc2OC[C@@H](C)N(C(=O)Nc2c(C)noc2C)C[C@H]1C,inactive
11,NCCCn1c2c(c3ccccc31)CCCC2,active
12,COc1ccccc1-c1ccc2c(c1)O[C@@H](CN(C)CC1CCOCC1)[C@H](C)CN([C@@H](C)CO)S2(=O)=O,inactive
13,O=C(N/N=C/[C@H](O)[C@@H](O)[C@H](O)[C@H](O)CO)c1ccccc1O,inactive
14,Cc1ccc(S(=O)(=O)Nc2ccc3c(c2)CC(=O)N([C@H](C)CO)C[C@H](C)[C@H](CN(C)Cc2ccc(Cl)c(Cl)c2)O3)cc1,active
15,COC(=O)c1sc2ncn(N)c(=O)c2c1C,inactive
16,C[C@@H]1CCCCO[C@@H](CN(C)S(=O)(=O)c2ccc(F)cc2)[C@@H](C)CN([C@@H](C)CO)C(=O)c2cc(NC(=O)c3ccccc3)ccc2O1,inactive
17,C[C@@H]1CN([C@@H](C)CO)C(=O)c2cccc(NC(=O)c3ccc(-c4nccs4)cc3)c2O[C@@H]1CN(C)Cc1ccc(C(=O)O)cc1,inactive
18,CC(C)CC#Cc1ccc2c(c1)O[C@@H](CN(C)C(=O)Cc1ccncc1)[C@@H](C)CN([C@@H](C)CO)S2(=O)=O,inactive
19,C[C@@H]1CN([C@H](C)CO)C(=O)c2cc(NS(=O)(=O)c3ccc(F)cc3)ccc2O[C@@H]1CN(C)C(=O)Nc1cccc2ccccc12,inactive
20,O=C(N[C@H]1CC[C@@H](CC(=O)N2CCOCC2)O[C@@H]1CO)c1ccc2c(c1)OCO2,inactive
